Several values for one entry are separate records, joined by “and”; a condition that tells them apart may be missing. Equal entries are not always repeated. In all, about 94,000 compounds went through this assay and about 6,200 (6.6%) were called active. The shares of active, inactive and inconclusive entries below differ from those in the screen. The call rests on the fitted dose curve; in most records, active means well fitted inhibition curve with a large enough effect; inconclusive means small, poorly fitted or top-dose-only effect; inactive means flat fitted curve, though single readings scatter. Potencies beside an inconclusive call are fits to weak or partial responses and may not hold up.
experiment: Cytotoxic Profiling in HEK 293 Cell Line of Diverse Libraries Using Quantitative High-Throughput Screening; details: HEK 293 viability, ATP luminescence (CellTiter-Glo), 48-72 h; series mostly up to 115 µM; further: nearly all actives have a fitted effect of over 60% in size
Summary of the method: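 ATP-coupled CellTiter-Glo luminescence served as viability read-out, recorded 10 min after reagent addition at room temperature. HEK 293 cells, 250 cells/well, had been incubated with pintool-transferred compound for 48 or 72 hr at 37 degree Celsius.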
Potency means the concentration at half of the fitted maximal effect; tags describe the fitted curve by direction and shape.

Row | Compound | Potency
1 | Cc1ccc(NC(=O)c2cc(NC(=O)C3CC3)cc3nc(C)ccc23)cc1 | inconclusive: 25.1 µM [inhibitor, partial curve, poor fit]
2 | O=C(c1ccc(F)cc1)N1CCN(Cc2ccccc2-c2ccccc2F)CC1 | inconclusive: 56.2 µM [inhibitor, partial curve, poor fit]
3 | CNC(=O)CCn1ncc2cc(OC3CCc4cccc(-c5c(C)noc5C)c43)ccc21 (stereo not drawn) | inconclusive: 50.1 µM [inhibitor, partial curve, poor fit]
4 | Cc1nn2c(c1-c1ccccc1C(C)C)N(C(=O)Cc1ccc(O)cc1)CCC2 | inconclusive: 89.1 µM [inhibitor, partial curve, poor fit]
5 | CCO[C@H]1CN(c2cc(C)nc(-c3ccccc3O)n2)C[C@@H]1O | inconclusive: 79.4 µM [inhibitor, partial curve, poor fit]
6 | CC(C)Cn1c(=O)c(C(=O)N2CCN([S+](=O)([O-])c3cccc(C(F)(F)F)c3)CC2)nc2cccnc21 | inconclusive: 89.1 µM [inhibitor, single point]
7 | COc1ccc([C@H]2C[C@@H](O)[C@@H](O)[C@@H]2NCc2ccccc2)cc1 | inactive
8 | O=C1C(N2CCN(S(=O)(=O)c3ccc(F)c(F)c3)CC2)CCN1CCc1ccccc1 (stereo not drawn) | inconclusive: 8.91 µM [inhibitor, full curve, poor fit]
9 | CN(C)C(=O)NC1CCN(Cc2cccc(-c3cccs3)c2)CC1 | inconclusive: 100 µM [inhibitor, partial curve, poor fit]
10 | O=C(NCc1ccc(Cl)cc1)c1ccc2nnc(-c3ccc(F)cc3)n2c1 | inconclusive: 44.7 µM [inhibitor, partial curve, poor fit]
11 | O=C(NC1CCN(Cc2cccc(-c3cccs3)c2)CC1)c1ccc(C(F)(F)F)cc1 | inactive and inconclusive: 7.94 µM [inhibitor, full curve, poor fit]
12 | COc1ccc(-c2[nH]nc3ncc(-c4cccnc4OC)nc23)c(C)c1 | active: 100 µM
13 | COCCN1C(=O)[C@@H]2C[C@@H](CN2C2CCCC2)Oc2ccccc21 | inconclusive: 100 µM [inhibitor, partial curve, poor fit]
14 | COc1ccc(Nc2ccnc(N3CCN([S+](=O)([O-])c4cccs4)CC3)n2)cc1 | inconclusive: 56.2 µM [inhibitor, partial curve, poor fit]
15 | Cc1nn(-c2ccccc2)c2c1C(C1CC1)N(C1CCN(Cc3ccccc3)CC1)C2=O (stereo not drawn) | inactive
16 | O=C1c2c(nc(CNc3ccc(F)cc3)n2Cc2ccccc2)NCCN1Cc1ccccc1 | inconclusive: 50.1 µM [inhibitor, partial curve, poor fit]
17 | CN(Cc1ccncc1)C1CCOc2ccccc21 (stereo not drawn) | inconclusive: 56.2 µM [inhibitor, partial curve, poor fit]
18 | COCCCN1C(=O)CC(CC(=O)N2CCC(C(O)c3ccccc3)CC2)(c2ccccc2C)C1=O (stereo not drawn) | inconclusive: 89.1 µM [inhibitor, single point]
19 | COc1ccc(CN2C[C@H]3CN(Cc4c[nH]c5ccccc45)CCN3C2=O)cc1 | active: 100 µM

Row | Compound | Potency
20 | CCOc1cc(C(=O)N2CCC[C@H]2c2nc(-c3ccc(C)cc3)no2)cc(OCC)c1OCC | inconclusive: 50.1 µM [inhibitor, partial curve, poor fit]
21 | COc1ccc(CN2C[C@H]3CN(Cc4ccc(C(F)(F)F)cc4)CCN3C2=O)cc1 | inconclusive: 56.2 µM [inhibitor, partial curve, poor fit]
22 | COc1ccccc1CN1Cc2cc(NC(=O)c3ccc(OC)c(OC)c3)ccc2OC(C)C1=O (stereo not drawn) | inconclusive: 50.1 µM [inhibitor, partial curve, poor fit]
23 | O=C1CC(c2ccccc2)N(C(=O)C2CC2)CCCN(C(=O)c2ccsc2)CCN1 (stereo not drawn) | inactive
24 | Cc1cc(C)cc(-c2ccc(CN3CCCC(N[S+](=O)([O-])c4c(C)noc4C)C3)cc2)c1 (stereo not drawn) | active: 25.1 µM
25 | Cc1noc(C)c1-c1cc2cc(C(C)C)oc2c(NCCN2CCOCC2)n1 | inconclusive: 100 µM [inhibitor, partial curve, poor fit]
26 | Cc1nc([C@@H]2CN(S(=O)(=O)c3ccc4c(c3)CCC4)C[C@H]2C(N)=O)n[nH]1 | inactive
27 | O=C1NCCCCCCN(Cc2ccc(F)cc2F)[C@H]2CCC[C@@H]12 | inconclusive: 79.4 µM [inhibitor, partial curve, poor fit]
28 | CCc1ccc(C(=O)N2CCC(Oc3ccc(C(N)=O)cn3)CC2)cc1 | inconclusive: 56.2 µM [inhibitor, partial curve, poor fit]
29 | CC(C)C(=O)NCC12CCCC=C1N(CC1CC1)C(=O)CC2 (stereo not drawn) | inactive
30 | Cc1cn2nc(-c3nc(C4CCCN(C(=O)c5sccc5C)C4)no3)cc2c(=O)[nH]1 (stereo not drawn) | inconclusive: 89.1 µM [inhibitor, single point]
31 | Cc1ccc(CNC(=O)c2ccc3c(c2)N(C)C2CCCCN2C3=O)cc1C (stereo not drawn) | inactive
32 | CS(=O)(=O)N1C[C@H]2CCN(Cc3c(F)cccc3Cl)C[C@H]21 | inconclusive: 79.4 µM [inhibitor, partial curve, poor fit]
33 | COc1ccccc1-c1ccc(CN2CCC(NC(=O)C3CCCC3)C2)cc1 (stereo not drawn) | inconclusive: 50.1 µM [inhibitor, partial curve, poor fit]
34 | CC(C)c1ccc([S+](=O)([O-])c2nnn3c2nc(NCc2ccncc2)c2ccccc23)cc1 | active: 50.1 µM
35 | CC(C)(C)OCC1CN(Cc2cccc(F)c2)[S+](=O)([O-])c2cccnc2O1 (stereo not drawn) | inconclusive: 35.5 µM [inhibitor, partial curve]
36 | O=C(c1cccc(Cl)c1)N1CCC(c2nn(-c3ccc(Cl)cc3)c(=O)[nH]2)CC1 | inconclusive: 50.1 µM [inhibitor, partial curve, poor fit]
37 | Cc1nn2c(c1-c1ccccc1-c1ccccc1)N(C(=O)c1ccnn1C)CCC2 | inactive
38 | COc1ccc(-n2nc(C3CCN(Cc4ccc(C(F)(F)F)cc4)CC3)[nH]c2=O)cc1 | inconclusive: 35.5 µM [inhibitor, full curve, poor fit]

Source: PubChem BioAssay AID1345083 (National Center for Advancing Translational Sciences (NCATS), 2018)
